Results published in PubChem BioAssay AID360 (National Center for Advancing Translational Sciences (NCATS), 2006).
The campaign covered roughly 48,000 compounds. About 550 (1.1%) were called active. Roughly 4% stayed inconclusive and do not appear here. No stated cut-off is given here; in the data, active means potency below about 15 µM; inconclusive means mostly about 16 µM to 33 µM; inactive means weaker than that. Some of the results follow.

Biological target: Lysosomal acid glucosylceramidase (Homo sapiens) (UniProt P04062)
UniProt P04062, sequence (P04062 whole entry, looked up): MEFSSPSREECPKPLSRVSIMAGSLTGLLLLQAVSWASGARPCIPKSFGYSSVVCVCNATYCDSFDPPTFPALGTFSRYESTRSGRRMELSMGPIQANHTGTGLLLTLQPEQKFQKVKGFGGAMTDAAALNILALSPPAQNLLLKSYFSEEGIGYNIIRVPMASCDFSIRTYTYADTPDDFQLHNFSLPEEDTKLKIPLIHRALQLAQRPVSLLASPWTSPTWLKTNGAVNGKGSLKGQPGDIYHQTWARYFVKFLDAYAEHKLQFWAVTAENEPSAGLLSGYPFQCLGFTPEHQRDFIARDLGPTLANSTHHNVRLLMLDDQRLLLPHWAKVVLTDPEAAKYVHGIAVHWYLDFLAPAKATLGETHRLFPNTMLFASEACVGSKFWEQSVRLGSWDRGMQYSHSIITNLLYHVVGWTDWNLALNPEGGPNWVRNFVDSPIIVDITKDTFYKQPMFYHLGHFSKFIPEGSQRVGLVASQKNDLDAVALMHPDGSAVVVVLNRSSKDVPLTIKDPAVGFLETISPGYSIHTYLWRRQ
Test: Glucocerebrosidase;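 further: the screen sought inhibitors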
Settings: purified enzyme, resorufin glucoside fluorescence (screen aimed at inhibitors), 20 min
Summary of the method: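 Compounds titrated against 0.2 nM normal enzyme, 30 uM resorufin beta-D-glucopyranoside substrate, citrate/phosphate buffer with taurocholate and tween-20, pH 5.9. Reaction ran 20 min at room temperature; fluorescence (Ex 548/Em 600) gave AC50.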
Potency means the concentration at half of the fitted maximal effect.

Potency, active:
COc1ccc(-c2cc3ccccc3n2CC(O)CNC(CO)(CO)CO)cc1 (stereo unspecified) 14.2 µM

Potency, inactive:
Nc1ncnc(Nc2ccccc2C(F)(F)F)n1 > 76.9 µM
CC(=O)N(CC1CCCO1)c1nnc(-c2cnccn2)s1 (stereo unspecified) > 76.9 µM
CCn1c(SCC(=O)c2ccc(Cl)cc2)nnc1-c1ccoc1C > 76.9 µM
COc1ccc(NC(=O)NS(=O)(=O)c2ccc(C)cc2)c(OC)c1 > 76.9 µM
Cc1ccc(C2=NCCNC2=O)c(C)c1 > 76.9 µM
CCCC(=O)Nc1nnc(-c2cccc(OCC)c2)s1 > 76.9 µM
CCCN(C(=O)c1cccs1)c1nnc(-c2ccncc2)s1 > 76.9 µM
CC(C)Cc1nc(N2CCC(C(N)=O)CC2)c2nnn(Cc3ccccc3)c2n1 > 76.9 µM
CCOC(=O)N1CCC(n2c(SCC(=O)NCc3ccco3)nc3ccsc3c2=O)CC1 > 76.9 µM
Cc1ccc(C(C)n2cc(C(=O)NCCN3CCN(C)CC3)nn2)cc1 (stereo unspecified) > 76.9 µM
Cc1cccc(NC(=O)Cn2c(=O)n3nc(CCn4nc(C)cc4C)nc3c3ccccc32)c1 > 76.9 µM
O=C1C2CCCN2C(c2ccccc2F)N1c1ccc(Cl)cc1 (stereo unspecified) > 76.9 µM
Cc1ccc(C)c(N(CC(=O)NC2CCCC2)C(=O)CCCC(=O)Nc2ccccn2)c1 > 76.9 µM
Cc1ccc(NC(=O)CCn2c(=O)oc3ccccc32)cc1 > 76.9 µM
O=c1c2ccccc2nnn1CSc1nnc2ccccn12 > 76.9 µM
CCC(=O)N(Cc1cc2c(C)ccc(C)c2[nH]c1=O)C1CCCCC1 > 76.9 µM
COc1cccc(OCC(O)CN2CCC(Cc3ccccc3)CC2)c1 (stereo unspecified) > 76.9 µM
CN(Cc1cnn(C)c1)C(=O)c1cc2ccccc2oc1=O > 76.9 µM
COc1ccc(-c2nc3nc(C)cc(C)n3n2)cc1 > 76.9 µM
Cc1[nH]c2ccccc2c1-c1nc2ccccc2[nH]1 > 76.9 µM
O=C(NC1CCCCC1)NC1CCN(S(=O)(=O)c2ccc3c(c2)OCCO3)CC1 > 76.9 µM
COC(=O)c1ccc(NC(=O)COc2ccc(S(=O)(=O)NC(C)C)cc2)cc1 > 76.9 µM
CCOCCCNC(=O)CN(Cc1ccc(Cl)cc1)S(C)(=O)=O > 76.9 µM
O=S(=O)(c1ccc(F)c2ccccc12)N1CCCCC1 > 76.9 µM
COc1ccc(CCNC(=O)C2CCN(c3nn4c(=O)cc(C)nc4s3)CC2)cc1OC > 76.9 µM
Cc1ccc(-c2nnc(SCC(=O)O)n2N)cc1 > 76.9 µM
CC(C)Sc1nc2c(c(=O)n(C)c(=O)n2C)n1Cc1ccc(Cl)cc1 > 76.9 µM
Cc1cccc(NC(=O)C2CCCN2C(=O)OCC(C)C)c1 (stereo unspecified) > 76.9 µM
Cc1ccc2oc(-c3ccco3)nc2c1 > 76.9 µM
Cc1cc(=O)[nH]c(/N=C(\N)Nc2cccc3ccccc23)n1 > 76.9 µM
CCOCCOC(=O)C1=C(C)N(C)C(=O)NC1c1cc(Cl)c(O)c(OCC)c1 (stereo unspecified) > 76.9 µM
CC12CCC(C(=O)N3CCN(c4ccccc4)CC3)(CC1=O)C2(C)C (stereo unspecified) > 76.9 µM
COc1ncnc2c1NC(=O)CS2 > 76.9 µM
CCOc1ccccc1NC(=O)Cc1ccccc1OC > 76.9 µM
N#CC1=C(N)OC2=C(C(=O)CCC2)C12CCC1(CC2)OCCO1 > 76.9 µM
O=C(Nn1cnnc1)c1csc2ccccc12 > 76.9 µM
Cc1ccc(N2CCN(S(=O)(=O)N(C)C)CC2)cc1Cl > 76.9 µM
O=C(Nc1ccccn1)C1CCN(S(=O)(=O)c2cccs2)CC1 > 76.9 µM
COc1ccccc1NC(=O)COc1cccc(-n2cnnn2)c1
Cc1c(Cl)cccc1NC(=O)CC(C(=O)O)C1CCCO1 (stereo unspecified) > 76.9 µM
O=C(CSc1nc2ccsc2c(=O)n1-c1ccccc1)N1CCCC1 > 76.9 µM
COc1ccccc1N(CC(=O)Nc1ccc(F)c(F)c1)S(C)(=O)=O > 76.9 µM
CCN(CC)c1ccc(-c2nn3c(-c4n[nH]c5c4CCC5)nnc3s2)cc1 > 76.9 µM
Nc1c(C(=O)N2CCCCC2)sc(=S)n1-c1ccccc1 > 76.9 µM
O=C(CSc1nnc(Cc2cccs2)n1C1CCCCC1)N1CCN(C(=O)c2ccco2)CC1 > 76.9 µM
O=C(CN1C(=O)c2ccccc2C1=O)N1CCN(c2nnc(-c3ccccc3)c3ccccc23)CC1 > 76.9 µM
Cn1nnc2cc(C(=O)NC3CCCCC3)ccc21 > 76.9 µM
Cc1ccc(Cn2nc(C)c(NC(=O)c3cc(-c4ccc5c(c4)OCO5)on3)c2C)cc1 > 76.9 µM
Cc1ccccc1NC(=O)c1cc(S(=O)(=O)N2CCOCC2)ccc1F > 76.9 µM
C=CCN(C(=O)CNS(=O)(=O)c1ccccc1)C(C(=O)NCCOC)c1ccncc1 (stereo unspecified) > 76.9 µM
O=C(CSc1nnc(-c2cccnc2)n1-c1ccccc1)NCc1ccc2c(c1)OCO2 > 76.9 µM
Nc1nc(SCC(=O)c2ccc(Oc3ccccc3)cc2)n[nH]1 > 76.9 µM
CCN1CCN(Cc2cc(=O)oc3cc4c(cc23)CCC4)CC1
Cc1cc(C)n(-c2nc3c(c(=O)n(C)c(=O)n3C)n2Cc2cccc(Br)c2)n1 > 76.9 µM
Cc1ccc(N(CC(=O)NCc2ccco2)C(=O)CCC(=O)Nc2ccccn2)cc1C > 76.9 µM
COc1ccc(C(=O)COC(=O)CCN=C2NS(=O)(=O)c3ccccc32)cc1OC > 76.9 µM
COc1ccc(N2CCN(C(=O)c3ccc(S(=O)(=O)N4CCOCC4)cc3)CC2)cc1 > 76.9 µM
CC1=C(C#N)C(=O)NC(C)(C)C1 > 76.9 µM
CS(=O)(=O)Nc1ccc(C(=O)Nc2ccccc2C(=O)N2CCCC2)cc1 > 76.9 µM
CSc1nnc(C2CCCN2)n1C (stereo unspecified) > 76.9 µM
Cc1nc2ccccc2n1CC(=O)OCC(=O)Nc1ccc2c(c1)OCCO2 > 76.9 µM
O=C(COC(=O)CCC(=O)c1cccs1)Nc1ccc(S(=O)(=O)N2CCOCC2)cc1 > 76.9 µM
O=C(NCCCN1CCCC1=O)c1cccc(N2CCCC2=O)c1 > 76.9 µM
CCC(CC)C(=O)NCc1ccccc1Cl > 76.9 µM
CCOc1ccc(NC(=O)CNC(=O)c2ccc(OC)c(OC)c2)cc1 > 76.9 µM
CCCCC1(C)NC(=O)N(CC(=O)Nc2ccc(S(=O)(=O)N3CCOCC3)cc2)C1=O (stereo unspecified) > 76.9 µM
Cc1cc(C)n(Cc2ccc(F)cc2)c(=O)c1C#N > 76.9 µM
Cc1ccc(N2CC(C(=O)Nc3nnc(C)s3)CC2=O)cc1 (stereo unspecified) > 76.9 µM
Cc1ccccc1Cn1nc(C)c(NC(=O)c2noc3c2CC(C(C)(C)C)CC3)c1C (stereo unspecified) > 76.9 µM
COc1cccc(CC(NC(C)=O)C(=O)NC2CCN(c3nc(C)cc(C)c3C#N)CC2)c1 (stereo unspecified) > 76.9 µM
CC(C)n1nnnc1C(c1ccc(F)cc1)N1CCN(C2CCCC2)CC1 (stereo unspecified) > 76.9 µM
CCn1c(=O)c(-[n+]2ccccc2)c(O)c2ccccc21 > 76.9 µM
COC(=O)c1ccc2c(=O)n(Cc3ccc4c(c3)OCO4)c(SCC(=O)N3CCCC3)nc2c1 > 76.9 µM
CCOC(=O)Nc1oc2ccccc2c(=O)c1CN1CCOCC1 > 76.9 µM
COc1ccccc1NC(=O)c1nnn(CC(=O)Nc2cccc(SC)c2)c1N > 76.9 µM
COc1cc(NC(=O)CN2c3cccc4cccc(c34)S2(=O)=O)cc(OC)c1OC > 76.9 µM
Cc1nc2cc(-c3ccc(F)cc3)nn2c(N2CCOCC2)c1C > 76.9 µM
CCOC(=O)N1CCC(NC(=O)C(NS(=O)(=O)c2ccc3c(c2)CCN3C(C)=O)C(C)C)CC1 (stereo unspecified) > 76.9 µM
C=CCn1c(-c2cccs2)nc2ccccc21 > 76.9 µM
Cc1ccc2cc(CN(C(=O)c3cccnc3)C(C)C)c(=O)[nH]c2c1 > 76.9 µM
CCCCNC(=O)c1ccc(NS(=O)(=O)c2ccccc2)cc1 > 76.9 µM
CCOC(=O)Cn1ncc(-c2ccccc2)c1N > 76.9 µM
Cc1ccc2nsnc2c1NS(=O)(=O)c1c(C)ccc2nsnc12 > 76.9 µM
COc1ccc(CCNC(=O)CN(C2CCCCC2)S(C)(=O)=O)cc1 > 76.9 µM
Cc1cc(NC(=O)C23CCC(C)(C(=O)O2)C3(C)C)no1 (stereo unspecified) > 76.9 µM
CCn1c(COc2ccc(C)cc2)nnc1SCC(=O)Nc1cc(OC)ccc1OC > 76.9 µM
O=C(Nc1ccc(N2CCOCC2)cc1)C1CC1 > 76.9 µM
CCOc1ccccc1C1C(C#N)=C(N)Oc2cc(C)n(Cc3ccccn3)c(=O)c21 (stereo unspecified) > 76.9 µM
Cc1ccc(-n2c(SCC(=O)N3CCCC3)nc3c(c2=O)SCC3)cc1 > 76.9 µM
COc1cc(C2NC(=O)NC(c3ccccc3)=C2C(C)=O)ccc1OCC(=O)O (stereo unspecified) > 76.9 µM
